{"source": "PubChem BioAssay AID504332", "about": "(National Center for Advancing Translational Sciences (NCATS), 2011)", "note": "Out of some 350,000 compounds screened, about 31,000 (8.9%) were called active. The shares of active, inactive and inconclusive entries below differ from those in the screen. Calls follow the shape of the dose curve; as a rule, active = well fitted inhibition curve with a large enough effect; inconclusive = small, poorly fitted or top-dose-only effect; inactive = no such curve, though single readings can be large or run the other way. Where the call is inconclusive, the potency comes from a doubtful curve fit. % is scaled to controls: 0 for no effect and ±100 for the full control effect; potency is read from the fitted curve at half-maximal effect; tags tell the direction and shape of the fitted curve.", "data": [{"biological_target": "Histone-lysine N-methyltransferase EHMT2 (Homo sapiens) (UniProt Q96KQ7)", "sequence (Q96KQ7 whole entry, looked up)": "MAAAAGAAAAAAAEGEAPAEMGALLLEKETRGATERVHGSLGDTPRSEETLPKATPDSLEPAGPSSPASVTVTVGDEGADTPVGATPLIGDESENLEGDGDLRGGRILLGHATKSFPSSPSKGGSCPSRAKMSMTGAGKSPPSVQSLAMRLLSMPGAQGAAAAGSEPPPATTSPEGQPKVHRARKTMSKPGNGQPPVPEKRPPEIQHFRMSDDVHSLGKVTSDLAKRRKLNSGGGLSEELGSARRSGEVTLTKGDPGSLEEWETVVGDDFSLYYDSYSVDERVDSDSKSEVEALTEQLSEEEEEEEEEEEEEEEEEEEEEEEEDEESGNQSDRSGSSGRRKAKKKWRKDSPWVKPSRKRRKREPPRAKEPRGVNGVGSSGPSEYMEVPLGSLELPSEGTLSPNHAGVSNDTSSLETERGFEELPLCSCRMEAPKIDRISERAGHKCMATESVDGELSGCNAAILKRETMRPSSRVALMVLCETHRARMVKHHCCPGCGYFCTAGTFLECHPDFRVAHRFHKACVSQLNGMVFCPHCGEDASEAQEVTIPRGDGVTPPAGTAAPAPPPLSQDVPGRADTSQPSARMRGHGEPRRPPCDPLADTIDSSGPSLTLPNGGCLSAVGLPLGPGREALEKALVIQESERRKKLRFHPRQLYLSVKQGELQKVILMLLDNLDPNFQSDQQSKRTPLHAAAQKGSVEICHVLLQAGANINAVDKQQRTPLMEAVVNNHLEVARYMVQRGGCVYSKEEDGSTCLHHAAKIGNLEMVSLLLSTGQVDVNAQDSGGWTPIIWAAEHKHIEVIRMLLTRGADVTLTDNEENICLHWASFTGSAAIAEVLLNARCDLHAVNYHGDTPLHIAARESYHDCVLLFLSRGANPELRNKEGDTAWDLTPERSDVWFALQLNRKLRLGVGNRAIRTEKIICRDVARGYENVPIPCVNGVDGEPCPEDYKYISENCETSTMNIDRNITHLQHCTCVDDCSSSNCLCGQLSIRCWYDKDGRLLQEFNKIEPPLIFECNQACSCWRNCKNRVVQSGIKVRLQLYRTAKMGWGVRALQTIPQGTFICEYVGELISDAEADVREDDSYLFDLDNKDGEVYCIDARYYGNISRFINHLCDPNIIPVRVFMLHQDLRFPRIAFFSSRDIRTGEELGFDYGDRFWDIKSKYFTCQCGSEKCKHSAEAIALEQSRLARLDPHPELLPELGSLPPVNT", "test": "qHTS Assay for Inhibitors of Histone Lysine Methyltransferase G9a; also: nearly all actives have a fitted effect of over 75% in size", "conditions": "G9a H3K9 monomethylation, AlphaScreen, 2 h; activity, negative = inhibition: at 59 µM (top of the series) unless noted", "method_in_brief": "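Quantitative HTS format: methyltransferase activity on a biotin-tagged H3K9 peptide is measured by AlphaScreen, using a rabbit anti-monomethyl-H3K9 antibody with streptavidin donor and anti-IgG acceptor beads. Final levels are 20 nM enzyme, 500 nM peptide, 20 uM SAM; 2 h RT.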", "values": [{"smiles": "CCN(C(=O)CN1CCCc2ccccc21)c1c(N)n(Cc2ccccc2)c(=O)[nH]c1=O", "activity, negative = inhibition": "inactive: 17.2%"}, {"smiles": "Cc1ccc(S(=O)(=O)N(C(=O)c2ccncc2)c2ccc(OC(=O)c3ccncc3)c3ccccc23)c(C)c1", "Potency": "active: 1.58 µM"}, {"smiles": "CS(=O)(=O)C1=NN2C(=N)/C(=C\\c3ccc(OCCOc4ccccc4)cc3)C(=O)N=C2S1", "Potency": "inconclusive: 0.708 µM [inhibitor, full curve, poor fit]"}, {"smiles": "Cc1nn(C)c2c1c(C(F)(F)F)cc(=O)n2Cc1cccc(Br)c1", "activity, negative = inhibition": "inactive: 69.2%"}, {"smiles": "CSc1nsc(/C=C/Nc2ccc(F)cc2)c1C#N", "Potency": "active: 50.1 µM"}, {"smiles": "COCC(=O)N1CCC2(CCCN(Cc3ccc(C#N)cc3)C2)CC1", "activity, negative = inhibition": "inactive: 0.824% [at 12.7 µM]"}, {"smiles": "CCCCN(C)CCCNC(=O)CC1Oc2ccccc2NC1=O", "note": "(stereo not drawn)", "Potency": "inconclusive: 79.4 µM [inhibitor, single point]"}, {"smiles": "CCN(CC)S(=O)(=O)c1cccc(-c2cn3cccnc3n2)c1", "Potency": "inconclusive: 44.7 µM [inhibitor, partial curve, poor fit]"}, {"smiles": "O=C(/C=C/c1ccccn1)c1ccc(Br)cc1O", "Potency": "inconclusive: 25.1 µM [inhibitor, single point]"}, {"smiles": "CCOc1ccc(/C=N/NC(=O)c2[nH]c3ccc(C)cc3c2C)cc1", "Potency": "inconclusive: 89.1 µM [inhibitor, single point]"}, {"smiles": "CCOc1ccc(CNC(=O)c2ccc(NC(=O)N3CCCCc4ccccc43)cc2)cc1OC", "activity, negative = inhibition": "inactive: 6.84%"}, {"smiles": "C#CCOCCOCCOCCNc1nc(N2CCN(C(=O)[C@H](Cc3cc4ccccc4[nH]3)n3cc([C@@H](N)CC(C)C)nn3)CC2)nc(N2CCN(C(=O)[C@H](Cc3cc4ccccc4[nH]3)n3cc([C@@H](N)CC(C)C)nn3)CC2)n1", "activity, negative = inhibition": "inconclusive: -101% [inhibitor]"}, {"smiles": "Cc1cc(C)c(C(=O)O)c(Cl)n1", "Potency": "inconclusive: 39.8 µM [inhibitor, partial curve, poor fit]"}, {"smiles": "COc1ccc(NC(=O)CN(c2ccc(C(C)C)cc2)S(=O)(=O)c2c(C)noc2C)cc1OC", "Potency": "inconclusive: 89.1 µM [inhibitor, single point]"}, {"smiles": "COC(=O)c1sccc1NC(=S)N1CCN(c2ccc(F)cc2)CC1", "Potency": "inconclusive: 79.4 µM [inhibitor, single point]"}, {"smiles": "O=C(Nc1ccc(O)cc1)/C(=C\\c1ccncc1)NC(=O)c1ccccc1", "Potency": "inconclusive: 44.7 µM [inhibitor, partial curve, poor fit]"}, {"smiles": "CCOc1ccc(-n2c(-c3ccccc3)c(C)n3c4c(=O)n(C)c(=O)n(C)c4nc23)cc1", "activity, negative = inhibition": "inactive: 0.434%"}, {"smiles": "Cc1ccc2c(c1)S/C(=C/c1ccc[n+](CCO)c1)N2C", "Potency": "inconclusive: 35.5 µM [inhibitor, single point]"}, {"smiles": "CCOc1ccc(C(=O)NCc2ccco2)cc1OCC", "activity, negative = inhibition": "inactive: -7.12% [at 102 µM]"}, {"smiles": "Cc1cc(C)c2c(c1)/C(=c1/sc3n(c1=O)CN(c1ccccc1)CN=3)C(=O)N2", "Potency": "inconclusive: 70.8 µM [inhibitor, partial curve, poor fit]"}, {"smiles": "C=C(C)CC(Nc1ccc(OC)cc1)c1ccco1", "note": "(stereo not drawn)", "Potency": "inconclusive: 50.1 µM [inhibitor, partial curve]"}, {"smiles": "CCN1CCN(CCCNC(=O)c2ccc(NC(=O)C3=C(C)OCCS3)cc2)CC1", "activity, negative = inhibition": "inactive: -10% [at 102 µM]"}, {"smiles": "Cc1c(Cl)cccc1-n1c(SCC(=O)NCc2ccccc2Cl)nnc1-c1ccncc1", "activity, negative = inhibition": "inconclusive: -53.2% [inhibitor]"}, {"smiles": "O=C(CSc1cccc[n+]1[O-])c1ccc(-c2ccccc2)cc1", "Potency": "active: 3.55 µM"}, {"smiles": "CC(C)CCNC(=O)C(c1cccs1)N(CC1CCCO1)C(=O)Cn1nnc2ccccc21", "note": "(stereo not drawn)", "Potency": "inconclusive: 39.8 µM [inhibitor, partial curve, poor fit]"}, {"smiles": "O=C(COC(=O)c1ccc(F)c(S(=O)(=O)N2CCOCC2)c1)Nc1ccc2c(c1)OCO2", "activity, negative = inhibition": "inactive: -39.6% [at 102 µM]"}, {"smiles": "Cn1c(SCc2nnc(-c3ccc(F)cc3)o2)nnc1C1COc2ccccc2O1", "note": "(stereo not drawn)", "Potency": "inconclusive: 5.01 µM [inhibitor, single point]"}, {"smiles": "N#CCCN(C(=O)COC(=O)C1CCN(c2ccc(C(F)(F)F)cn2)CC1)c1ccc(F)cc1", "activity, negative = inhibition": "inactive: -45.2% [at 102 µM]"}, {"smiles": "O=C(Cn1nc2n(c1=O)-c1ccccc1SC2)N/N=C/c1cccs1", "activity, negative = inhibition": "inactive: 7.15% [at 102 µM]"}, {"smiles": "COc1ccc(NC(=O)c2coc(C)c2)cc1", "Potency": "inconclusive: 3.98 µM [inhibitor, full curve]"}, {"smiles": "Cc1ccc(S(=O)(=O)N2CCOCC2)cc1C(=O)NCCCn1ccnc1", "Potency": "inconclusive: 89.1 µM [inhibitor, single point]"}, {"smiles": "Cc1ccc(CNC(=O)c2ccc3c(=O)n4c(-c5ccc(C)cc5)csc4nc3c2)cc1", "activity, negative = inhibition": "inactive: 11.7%"}, {"smiles": "CN(C)[C@@H](CO)c1nnc([C@H](Cc2ccc(O)cc2)NC(=O)C2CCNCC2)o1", "activity, negative = inhibition": "inconclusive: -79.4% [inhibitor]"}, {"smiles": "CN(C)c1ccc(C(=S)N2CCCC2)cc1Br", "activity, negative = inhibition": "inactive: 0.216% [at 102 µM]"}, {"smiles": "Brc1ccc(-c2c[n+]3c(n2-c2ccccc2)SCC3)cc1", "Potency": "inconclusive: 31.6 µM [inhibitor, partial curve, poor fit]"}, {"smiles": "CN1CCN(/N=C2/C(=O)Nc3ccc([N+](=O)[O-])cc32)CC1", "Potency": "active: 50.1 µM"}, {"smiles": "COc1ccccc1OCCNC(=O)CNC(=O)c1ccc(Cl)c(Cl)c1", "Potency": "inconclusive: 89.1 µM [inhibitor, partial curve, poor fit]"}, {"smiles": "CCn1cnc2cc(NCc3cccs3)ccc21", "Potency": "active: 44.7 µM"}, {"smiles": "Cc1oc(C)c2c(=O)cc(-c3ccc4c(c3)OCO4)cc(OC(=O)c3ccccc3Cl)c12", "Potency": "inconclusive: 20 µM [inhibitor, partial curve, poor fit]"}, {"smiles": "CCOC(=O)c1c(-c2ccccc2)csc1NC(=O)c1nc(S(=O)(=O)CC)ncc1Cl", "Potency": "inconclusive: 8.91 µM [inhibitor, partial curve, poor fit]"}, {"smiles": "O=C(N/N=C/c1ccccn1)c1ccc2nc[nH]c2c1", "Potency": "inconclusive: 2.24 µM [inhibitor, full curve, poor fit]"}, {"smiles": "CC(=O)C1=C(O)C(=O)N(c2ccc(Br)cc2)C1c1ccccc1[N+](=O)[O-]", "note": "(stereo not drawn)", "Potency": "active: 39.8 µM"}, {"smiles": "O=C(CNS(=O)(=O)/C=C/c1ccccc1)OC1CCOC1=O", "note": "(stereo not drawn)", "Potency": "inconclusive: 50.1 µM [inhibitor, partial curve]"}]}]}
